PubChem BioAssay AID488969 (Vanderbilt High Throughput Screening Facility, 2010)
Whole data set: some 110,000 compounds, median “z-score” near -0.1, cut for the highest 2% near 2. Some of the results follow. Active and inactive are the calls of the source.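 Rule for the calls: active = z-score in the third read window above 3 or below -3; inactive = the rest.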

Each molecule was assayed against Metabotropic glutamate receptor 8 (Rattus norvegicus) (UniProt P70579) (assay: rat mGluR8 modulators via GIRK flux, primary screen, cell-based, thallium flux, HTS (AID 488969)). Conditions: HEK293 rat mGluR8, GIRK (G protein-gated inwardly rectifying potassium channel) thallium flux, FluoZin2; at 10 µM; stronger effect = higher value; submaximal glutamate (EC20) added with thallium.
Sequence of UniProt P70579 (P70579 whole entry, looked up): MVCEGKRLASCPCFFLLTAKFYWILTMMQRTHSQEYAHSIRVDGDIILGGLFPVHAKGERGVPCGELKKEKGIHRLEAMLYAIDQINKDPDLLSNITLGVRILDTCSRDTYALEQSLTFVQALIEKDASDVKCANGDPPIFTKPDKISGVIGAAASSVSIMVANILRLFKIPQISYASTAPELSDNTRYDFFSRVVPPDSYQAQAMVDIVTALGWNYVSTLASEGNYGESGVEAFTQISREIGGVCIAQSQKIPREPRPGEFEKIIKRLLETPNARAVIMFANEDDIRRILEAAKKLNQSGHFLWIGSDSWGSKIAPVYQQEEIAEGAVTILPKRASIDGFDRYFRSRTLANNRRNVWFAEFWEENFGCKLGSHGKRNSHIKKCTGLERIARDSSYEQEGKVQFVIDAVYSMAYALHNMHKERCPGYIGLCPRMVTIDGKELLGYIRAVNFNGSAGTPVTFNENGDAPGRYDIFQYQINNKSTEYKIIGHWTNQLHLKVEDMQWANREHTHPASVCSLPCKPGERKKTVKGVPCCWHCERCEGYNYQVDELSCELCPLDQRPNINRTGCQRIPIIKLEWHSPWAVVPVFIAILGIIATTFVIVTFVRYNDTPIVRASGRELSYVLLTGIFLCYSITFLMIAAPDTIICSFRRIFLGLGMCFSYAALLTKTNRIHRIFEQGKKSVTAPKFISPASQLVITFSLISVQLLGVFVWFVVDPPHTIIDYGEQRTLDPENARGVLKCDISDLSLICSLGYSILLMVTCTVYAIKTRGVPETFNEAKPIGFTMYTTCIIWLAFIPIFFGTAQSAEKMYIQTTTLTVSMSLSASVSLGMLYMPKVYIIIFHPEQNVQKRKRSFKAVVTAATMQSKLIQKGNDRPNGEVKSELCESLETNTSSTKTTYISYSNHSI

Row | SMILES | z-score
1 | COc1ccc(/C=C/C(=O)NC(=S)NCCc2ccc(OC)c(OC)c2)cc1 | -0.107
2 | CCOC(=O)Cn1c2[n+](c3ccccc31)CC(O)CS2 (stereo not given) | -0.74
3 | COc1cc(/C=C/C(=O)OCC(=O)Nc2cc(C(F)(F)F)ccc2N2CCOCC2)ccc1O | -0.338
4 | CCc1ccc(/C(C)=N/Nc2cc(Cl)nc(C)n2)cc1 | 0.00666
5 | Cc1ccc(-n2c(=O)c(C#N)cc3c(=O)n4cccc(C)c4nc32)cc1 | -0.24
6 | O=C(Oc1ccc(-c2cnc3ccccc3n2)cc1)c1ccc(Br)o1 | 0.266
7 | S=C1NC2=C(C(c3ccc(Br)cc3)N1)N1CCC2CC1 (stereo not given) | -1
8 | O=C(O)CCC(=O)Nc1ccc(Br)c(Cl)c1 | 0.0527
9 | Cc1ccc(NC(=O)CC(O)(C(F)(F)F)C(F)(F)F)c(Br)c1 | -0.368
10 | CCOc1ccc(C(c2c(NC(=O)c3ccccc3)sc(C)c2C)N2CCN(CCO)CC2)cc1 (stereo not given) | 0.101
11 | COc1ccc(OC)c(S(=O)(=O)Nc2ccc(C)c(C)c2)c1 | 0.85
12 | CCC1(C)Cc2c(sc3[nH]c(=O)[nH]c(=O)c23)CS1 (stereo not given) | -0.458
13 | CCN(CC)C(=S)SCC(=O)c1ccccc1 | -0.161
14 | Cc1ccc(S(=O)(=O)Nc2ccc(=O)n(Cc3ccc(Cl)c(Cl)c3)c2)cc1 | -0.0721
15 | CCCNS(=O)(=O)c1ccc(Oc2ncc(C(F)(F)F)cc2Cl)cc1 | -0.2
16 | COc1ccccc1S(=O)(=O)Cc1ccc(C(=O)N2CCOCC2)o1 | 0.828
17 | CCC1(c2ccccc2)NC(=O)N(CC(=O)Nc2cccc(C#N)c2)C1=O (stereo not given) | -0.319
18 | O=c1cc(N2CCC(Cc3ccccc3)CC2)[nH]c(=O)n1C1CCCCC1 | 0.171
19 | COC(=O)C(C(=O)NCC1CCCO1)C1CCCCCC1 (stereo not given) | 0.131
20 | Cc1cccc(N2C(=O)C3C4C=CC(C4)C3C2=O)c1 (stereo not given) | -0.78
21 | COCCCn1c(SCc2ccc(OC)cc2)nc2cc(OC)c(OC)cc2c1=N | -0.293
22 | CCCn1c(=O)n(C)c(=O)c2c(SCc3cc(C(C)=O)ccc3OCC)nc(C3CC3)nc21 | -0.12

Row | SMILES | z-score
23 | Cc1cccc(/C(N)=N/OC(=O)CCc2ccccc2)c1 | -0.12
24 | O=C(NCc1ccc(Cl)cc1Cl)C1CCN(S(=O)(=O)c2ccc3c(c2)OCCCO3)CC1 | -0.505
25 | Cc1ccc(NC2=NCCC2)cc1Cl | -0.0067
26 | CCc1c(C)c(C#N)c2nc3ccccc3n2c1NCc1ccco1 | active: -3.28
27 | Cc1cccc(S(=O)(=O)Nc2ccc(C)c3c2OC(C)(C)C3)c1 | 0.191
28 | COC(=O)c1ccc(-c2nc3cc(Cl)c(N)cc3s2)cc1 | -0.0315
29 | Fc1ccccc1CNc1ccc(Cl)cc1 | -0.159
30 | COc1ccc(-c2nnc(NC(=O)c3cc(Cl)ccc3Cl)o2)cc1 | 1.02
31 | COc1ccccc1N1C(=O)c2ccccc2NC1c1ccncc1 (stereo not given) | 0.101
32 | O=C(Nc1ccccc1C(F)(F)F)c1cc(S(=O)(=O)N2CCOCC2)ccc1F | -0.0485
33 | O=C(Nc1ccc(CN2CCOCC2)cc1)c1ccc(-c2cccc(Cl)c2)o1 | 0.138
34 | O=C(COC(=O)c1ccc2c(c1)OCCO2)NCCC1=CCCCC1 | -0.393
35 | CCOc1ccc(C2CC(c3cccc(OC)c3)Nc3ncnn32)cc1 (stereo not given) | -0.715
36 | CC(C)Oc1ccc(C(=O)Nc2cc(=O)n(C)c(=O)n2C)cc1 | 0.193
37 | COc1ccccc1-c1noc(CCC(=O)Nc2cccc(C)c2)n1 | -0.323
38 | N#Cc1c(-c2ccccc2F)cc(C2CC2)nc1SCC(=O)c1cccs1 | -0.51
39 | CCOC(=O)C1CN(S(=O)(=O)c2ccc(F)cc2)C1 | -0.587
40 | Cc1cc(N2CCOCC2)nc(SCc2ccc(Cl)cc2Cl)n1 | 0.475
41 | CC1(C)Cc2noc(N)c2C(C)(C)N1OC(=O)c1ccccc1 | 0.169
42 | COc1ccccc1N(Cc1ccccc1)S(=O)(=O)c1cccc(C(=O)Nc2ccc(C(C)=O)cc2)c1 | -0.284
43 | CC(C)OC(=O)c1c2nc3ccccc3nc2n2c1[nH]c(=O)c1ccccc12 | active: 16.9
44 | CCN(CC)c1ccc(NC(=O)CN2C(=O)CC(C)(C)S(=O)(=O)c3ccccc32)c(C)c1 | -0.103

Row | SMILES | z-score
45 | CCn1c(=NC(=O)c2ccc(N3C(=O)CCC3=O)cc2)sc2c(OC)ccc(OC)c21 | -0.536
46 | O=C(CN1C(=O)C2(OCCO2)c2ccccc21)c1ccc(Cl)cc1 | -0.162
47 | COc1cc(C(=O)Nc2ccc(N(C)C)cc2)cc(OC)c1OC | 0.211
48 | CCn1c(COc2cccc(OC)c2)nnc1SCC(=O)Nc1cccc(OC)c1 | -1.16
49 | CC1(C)CC(=O)C2=C(C1)Nc1[nH]c(=S)[nH]c(=O)c1C2c1ccccc1 (stereo not given) | -0.254
50 | O=C1C(C=NCc2cccnc2)=C(O)c2ccccc21 | 0.0333
51 | O=C(Nc1ccc(S(=O)(=O)Nc2ncccn2)cc1)c1cccnc1 | -0.236
52 | O=c1[nH]c(C(F)(F)F)nc2c1nnn2Cc1ccccc1F | -1.13
53 | CCN(CC)CCCNc1cc2n(c(=O)n1)CCc1cc(OC)c(OC)cc1-2 | -1.06
54 | O=C(O)CCCNS(=O)(=O)c1cccc2nsnc12 | -0.542
55 | Cc1cccc(/C=C2/SC(=O)N(Cc3ccccc3Cl)C2=O)n1 | -0.00258
56 | CCCOc1c(Br)cc(/C=N/O)cc1OC | -0.858
57 | COc1ccc(/C=C\C(=O)c2c(O)ccc3c(C)cc(=O)oc23)cc1OC | -0.676
58 | COc1cc(C(=O)Nc2ccc(-n3cnnn3)c(C)c2)cc(OC)c1OC | 0.356
59 | C=CCN(C(=O)CNC(=O)c1ccco1)C(C(=O)NC1CCCCC1)c1ccc(OC)cc1 (stereo not given) | -0.131
60 | O=C(CN1CCCN(Cc2ccc(F)cc2Cl)C1=O)NC1CCCCCCC1 | 0.44
61 | COc1ccccc1NC(=O)C(CC(C)C)NC(=O)C1CCCCC1 (stereo not given) | -1.02
62 | Cc1ccc(C)c(N2CCN(C(=O)c3cc4ccccc4oc3=O)CC2)c1 | -0.295
63 | COc1ccc(Br)cc1C(=O)Nc1cc(C)cc(C)c1 | 0.81
64 | O=C(COc1ccc(S(=O)(=O)N2CCCC2)cc1Cl)N1CCN(c2ccccc2)CC1 | -0.134
65 | COc1ccc(CCN2C(=O)c3cccc4c(C(=O)N5CCCCC5)ccc(c34)C2=O)cc1OC | -0.211
66 | CCn1c(=N)n(CC(=O)c2ccc(OC)cc2)c2ccccc21 | -0.117

Row | SMILES | z-score
67 | CC(C)OCCCNC(=O)C1CCN(S(=O)(=O)N2CCCCC2)CC1 | 1.03
68 | COc1ccc(C2c3c(-c4cc(Cl)c(C)cc4O)n[nH]c3C(=O)N2Cc2cccnc2)cc1OC (stereo not given) | 0.413
69 | CCN(CC)c1nc2nonc2nc1N(CC)CC | 2.53
70 | CC(C)(C)OC(=O)N[C@@H](Cc1ccccc1)c1nnc(S(=O)(=O)Cc2cccc(F)c2)o1 | 0.242
71 | Cc1ccc2c(c1)NC(=O)C(CC(=O)Nc1ccc(CN3CCC(C)CC3)cc1)O2 (stereo not given) | 0.00115
72 | Cc1nc(CC(=O)N2CCN(c3cccc(C)c3C)CC2)cs1 | -0.0923
73 | c1ccc(Cc2nnc3sc(C4COc5ccccc5O4)nn23)cc1 (stereo not given) | -0.102
74 | COc1ccc(CCNC(=O)C2CCN(S(=O)(=O)c3ccc(-n4cnnn4)cc3)CC2)cc1OC | -0.441
75 | CCOc1ccc(NC(=O)N2CCN(CC)CC2)cc1 | 0.579
76 | CCCc1nn(C)c(C(=O)Nc2ccc3ccccc3c2)c1Cl | 0.0433
77 | O=C(COc1ccc(Cl)cc1Br)NNC(=O)C(=O)N1CCCCC1 | 0.437
78 | CC(C)CC(=O)NS(=O)(=O)c1ccc(N)cc1 | 0.0965
79 | Cc1cc(C)c(C)c(OCC(=O)O/N=C(\N)c2ccccn2)c1 | 0.0182
80 | C/C(CC(=O)NC1CCCC1)=N\NC(=O)Cc1cccs1 | -0.189
81 | C=CCN(CC=C)C(=O)CN1C(=O)c2ccccc2C1=O | 0.985
82 | CCn1nnc(NC(=O)c2ccc(-c3ccc(Cl)cc3)o2)n1 | -0.473
83 | Cn1nc(-c2ccc(N3CCOCC3)c(NS(=O)(=O)c3ccc(Cl)cc3)c2)c2ccccc2c1=O | -0.174
84 | Cc1ccc(NC(=O)N/C=C/c2ccco2)cc1 | -0.393
85 | C=CCn1c(C)cc(C(=O)CSc2nnc3c(Cl)cc(Cl)cn23)c1C | 0.0823
86 | c1ccc(OCCOc2cccc3cccnc23)cc1 | -0.0884
87 | CN(CCNC(=O)Cn1c(=O)sc2ccccc21)Cc1ccccc1 | 0.164
88 | COC(=O)c1c(/N=C/NOCc2ccc(Cl)cc2)sc2c1CCN(c1ncc(C(F)(F)F)cc1Cl)C2 | 0.547

Row | SMILES | z-score
89 | O=c1[nH]c(CSc2nc3ccccc3[nH]2)nc2c1cnn2-c1ccccc1 | -0.584
90 | Cc1cc(C(=O)N/N=C/c2ccc(C)o2)c2ccccc2n1 | -0.137
91 | COc1ccc(CCN2C(=O)c3ccccc3C2(O)c2ncc[nH]2)cc1OC (stereo not given) | 0.0345
92 | COc1ccc(C)cc1NC(=O)C(=O)NCc1ccncc1 | -0.183
93 | CN(CC(=O)N1CCN(c2ccccn2)CC1)S(=O)(=O)c1ccc2ccccc2c1 | -0.601
94 | N#Cc1ccc(-c2ccc(F)cc2)nc1Oc1ccc(Cl)c(Cl)c1 | 0.519
95 | CC(C)NS(=O)(=O)c1ccc(N2C(=O)c3ccccc3C2=O)cc1 | -0.144
96 | CCN(c1c(C)n(C)n(-c2ccccc2)c1=O)S(C)(=O)=O | 0.17
97 | CN(C)c1ccc(/C=N\Nc2nc(-c3ccccc3)cc(=O)[nH]2)cc1 | -0.138
98 | CCN(CC)CCN1C(=O)c2oc3ccccc3c(=O)c2C1c1ccc(C)cc1 (stereo not given) | active: 8.12
99 | O=C(CCC(=O)c1ccc(F)cc1)Nc1ccccc1Cl | 0.266
100 | O=C(Nc1ccc(N2CCOCC2)c(Cl)c1)c1cccnc1Cl | -0.032
101 | Cc1ccccc1S(=O)(=O)NC1=NCCCCC1 | -0.463
102 | CC(CO)N1CCS(=O)(=O)CC1 (stereo not given) | 0.035
103 | COc1cc(C(=O)Nc2ccccc2-c2nnn(CC(N)=O)n2)cc(OC)c1OC | 0.00311
104 | O=C(O)C1SCCN1S(=O)(=O)c1ccc2ccccc2c1 (stereo not given) | 0.133
105 | COc1ccc(F)cc1S(=O)(=O)NC1CC(C)(C)NC(C)(C)C1 | 0.0814
106 | C=CCOc1ccc(C2NC(=O)NC(C)=C2C(=O)OC)cc1 (stereo not given) | -0.975
107 | O=C(c1n[nH]c(=O)c2ccccc12)N1CCN(c2ccccc2)CC1 | -0.038
108 | CCC(=O)N/C=C/n1cnc2cc(C(F)(F)F)ccc21 | 0.129
109 | Fc1cccc(Cl)c1Cc1noc(/C=C/c2ccccc2)n1 | -0.138
110 | O=C(Nc1ccccc1F)c1ccccc1-c1ccc(C(F)(F)F)cc1 | -0.0848
